Article PMC5318989
Numbering of substitutions follows the chain as printed. Names and notes keep the numbering of the source. No constants are given. Whether binding was seen depends on the method and setting. In cells and extracts the contact can be indirect. Some binding calls cover weakened binding; strength is not graded here. Where a sequence is shown, tags or fusion partners need not be part of it.

T1: GST-tagged mTRPM7 exchange segment (a.a. 1548-1576) (mouse) (UniProt Q923J1)
T1 sequence: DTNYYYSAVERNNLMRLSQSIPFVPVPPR

B1: GFP-TRPM7-Cterm-L1564P (domain or fragment, UniProt Q923J1 1120-1863)
chain: MAYHEKPVLPPPLIILSHIVSLFCCVCKRRKKDKTSDGPKLFLTEEDQKKLHDFEEQCVEMYFDEKDDKFNSGSEERIRVTFERVEQMSIQIKEVGDRVNYIKRSLQSLDSQIGHLQDLSALTVDTLKTLTAQKASEASKVHNEITRELSISKHLAQNLIDDVPVRPLWKKPSAVNTLSSSLPQGDRESNNPFLCNIFMKDEKDPQYNLFGQDLPVIPQRKEFNIPEAGSSCGALFPSAVSPPELRQRRHGVEMLKIFNKNQKLGSSPNSSPHMSSPPTKFSVSTPSQPSCKSHLESTTKDQEPIFYKAAEGDNIEFGAFVGHRDSMDLQRFKETSNKIRELLSNDTPENTLKHVGAAGYSECCKTSTSLHSVQAESCSRRASTEDSPEVDSKAALLPDWLRDRPSNREMPSEGGTLNGLASPFKPVLDTNYYYSAVERNNLMRPSQSIPFVPVPPRGEPVTVYRLEESSPSILNNSMSSWSQLGLCAKIEFLSKEEMGGGLRRAVKVLCTWSEHDILKSGHLYIIKSFLPEVINTWSSIYKEDTVLHLCLREIQQQRAAQKLTFAFNQMKPKSIPYSPRFLEVFLLYCHSAGQWFAVEECMTGEFRKYNNNNGDEIIPTNTLEEIMLAFSHWTYEYTRGELLVLDLQGVGENLTDPSVIKAEEKRSCDMVFGPANLGEDAIKNFRAKHHCNSCCRKLKLPDLKRNDYTPDKIIFPQDESSDLNLQSGNSTKESEATNSVRLML
B2: GFP-TRPM7-Cterm WT (COOH-terminal fragment of mouse TRPM7, a.a. 1120-1863) (domain or fragment, UniProt Q923J1 1120-1863)
chain: B1 chain with P445L
B3: GFP-TRPM7-Cterm-S1565A (domain or fragment, UniProt Q923J1 1120-1863)
chain: B1 chain with P445L, S446A
B4: GFP-TRPM7-Cterm-S1565D (domain or fragment, UniProt Q923J1 1120-1863)
chain: B1 chain with P445L, S446D

Tests used:
[1] = molecular target: T1, GST-tagged mTRPM7 exchange segment (a.a. 1548-1576) (mouse); test: pull-down; GST-exchange bound on glutathione agarose incubated overnight at 4 °C with HEK-293T lysate containing transiently expressed GFP-TRPM7-Cterm WT or mutants; detected by anti-GFP immunoblot; only the target purified
[2] = molecular target: GFP-TRPM7-Cterm WT (COOH-terminal fragment of mouse TRPM7, a.a. 1120-1863) (mouse) (UniProt Q923J1); test: pull-down; indirect read-out of kinase dimerization: if the dimer of GFP-TRPM7-Cterm in the HEK-293T lysate is disrupted, GST-exchange on glutathione agarose can capture the kinase; if it is intact, it cannot
[3] = molecular target: GFP-TRPM7-Cterm-S1565A (mouse) (UniProt Q923J1); test: as above
[4] = molecular target: GFP-TRPM7-Cterm-S1565D (mouse) (UniProt Q923J1); test: as above

Binder | binding [1] | binding [2] | binding [3] | binding [4]
B1 | binds | – | – | –
B2 | no binding | binds | – | –
B3 | no binding | – | binds | –
B4 | no binding | – | – | binds
